Laboratory results taken from the supplement of paper PMC8674133.

B1: C2051 (protein)
chain 1: QVQLVQSGAEVKKPGSSVKVSCKASGGTFSTYAISWVRQAPGQGLEWMGGIIPIFGTANYAQKFQGRVTITADKSTTTAYMELSSLRSEDTAVYYCARDARGCSHDSVWGSFQDCYHGMDVWGQGTTVTVSS
chain 2: DIQMTQSPSSLSASVGDRVTITCRASQGISNYLAWYQQKPGKVPKLLIYAASTLQSGVPSRFSGSGSGTDFTLTISSLQPEDVATYYCQKGTFGPGTKVDIK
B2: C2043 (protein)
chain 1: EVQLVESGGGLIQPGGSLRLSCAASEFTVSSNYMNWVRQAPGKGLEWVSVIYSGGSTYYADSVKGRFTISRDNSKNTLYLQMNSLRAEDTAVYYCARELKGRFDYWGQGTLVTVSS
chain 2: IRMTQSPSSLSASVGDRVTITCQASQDISNYLNWYQQKPGKAPKLLIYDASNLETGVPSRFSGSGSGTDFTFTISSLQPEDIATYYCQQYDNLSMYTFGQGTKLEIK
B3: C2440 (protein)
chain 1: EVQLVESRGGLLQPGGSLRLSCAASGFSFSRFDMHWVRQGPGKRLEWVSAIGTSGDTYYADSVKARFTISRENARSSLYLQMNSLRAGDTAVYYCARGADSVMGNWYFDLWGRGTLVTVSS
chain 2: QSALTQPASVSGSPGQSITISCTGTSSDVGSYNLVSWYQQHPGKAPKLIIYEGIKRPSGVSDRFTGSSSGTTASLTISGLQAEDEADYYCCSYAGGTTFYVFGTGTKVTVL
B4: C2045 (protein)
chain 1: QVQLVQSGAEVKKPGASVKVSCKASGYTFTGYYLHWVRQAPGQGLEWMGWINPVSGGTNYAQHFQGRVTMTRDTSITTAYMELSRLRSDDTAVYYCARNYPPLLQQLGFMDVWGQGTTVTVSS
chain 2: QSVLTQPPSVSAAPGQKVTISCSGSSSNIGNNYVSWYQQLPGTAPKLLIYESNRRPSGIPDRFSGSKSGTSATLGITGLQTGDEADYYCGTWASSLSADWVFGGGTKLTVL
B5: C2037 (protein)
chain 1: EVQLVESGGGLIQPGGSLRLSCAASGFTVSSNYMNWVRQAPGKGLEWVSVIYSGGSTYYADSVKGRFTISRDNSKNTLYLQMNSLRAEDTAVYYCARDLELKGAFDIWGQGTMVTVSS
chain 2: DIQLTQSPSFLSASVGDRVTITCRASQGISSYLAWYQQKPGKAPKLLIYAASTLQSGVPSRFSGSGSGTEFTLTISSLQPEDFATYYCQQLNSYPPWTLGQGTKVEIK
B6: C2044 (protein)
chain 1: B5 chain 1 with T28I, S31N, N35S, V50L, L101E, K102A, A104G, I107Y, M113L
chain 2: SYELTQPPSVSVAPGQTARITCGGNNIGIKSVHWYQQKPGQAPVVVVYDDSDRPSGIPERFSGSNSGNTATLTISRVEAGDEADYYCQVWDSSSDLYVFGTGTKVTVL
B7: C2411 (protein)
chain 1: QVQLQESGPGLVKPSETLSLTCTVSGGSISSYYWSWIRQPPGKGLEWIGYIHYSGSTNYNPSLKSRVTISVDTSKNQFSLKLSSVTAADTAVYYCARHYDILTALSWFDPWGQGTLVTVSS
chain 2: B5 chain 2 with W97Y, L99F, V105L
B8: C2038 (protein)
chain 1: QVQLVQSGAEVKKPGASVKVSCKASGYTFTSYDINWVRQATGQGLEWMGWMNPNSGSTGYAQKFQGRVTMTRNTSISTAYMELSSLRSEDTAVYYCARVSDILTGYIDYWGQGTLVTVSS
chain 2: B6 chain 2 with I29S, S31N, V45L, D95E, L96P
B9: C2454 (protein)
chain 1: QVQLVQSGAEVKRPGASVKVSCKTSGYMFTSYDINWVRQATGQGLEWMGWMNPDSGNAGYAQKFQGRVTMTRNTSINTAYLELSSLRSDDTGVYYCARPRPGYCSGGHCYNYYYYAMAVWGQGTTVTVSS
chain 2: QSALTQPPSASGSPGQSVTISCTGTSSDVGGYNYVSWYQQHPGKAPKLMMYEVSKRPSGVPDRFSGSKSGNTAFLTVSGLQAEDEADYYCNSYAGSNNEVFGTGTKVTVL
B10: C2397 (protein)
chain 1: EVQLVQSGAEVKKPGESLKISCKGSGYSFTRYWIGWVRQMPGKGLEWMGIIYSGGSETRYNPSFQGLITISTDKSVSTAYLRWSSLKASDTAMYYCARSDTDNYFDYWGQGTLVTVSS
chain 2: EIVMTQSPATLSISPGERATLSCRASQSISNNLAWYQQKPGQAPRLLIYGASTRATGVPARFSGSWSGTEFTLTINSLHSEDFAVYYCQQYNNWPPITFGQGTRLEIK
B11: C2049 (protein)
chain 1: VQLVQSGAEVKKPGSSVKVSCKASGGTFSSYAISWVRQAPGQGLEWMGGIIPMFGTANYAQKFQGRVTITADESTSTASMELSSLRSEDTAVYYCARAGYCTSTVCSRLAPRGWLDPWGQGTLVTVSS
chain 2: EIVLTQSPATLSLSPGERAILSCRASQSVSSYLAWYQQKPGQAPRLLIYDASNRATGIPARFSGSGSGTDFTLTISSLEPEDFAVYYCQQRSNWPPTFGQGTRLEIK
B12: C2453 (protein)
chain 1: QVQLVQSGAEVKKPGSSVKVSCKASGGTFGSYALSWVRQAPGQGLEWMGGIIPIFGTPHYAQRFQGRVTITADESTSTAYMELGSLKSDDTAVYYCARRSSSSVDWFDPWGQGTLVTVSS
chain 2: QSALTQPASVSGSPGQSITISCTGTGSDLGGYNYVSWYQQLSGKAPKLMIYYVTNRPSGVSDRFSGSKSGNTASLTISGLQAEDEAVYYCSSYTSSSTPYVFGTGTKVTVL
B13: C2042 (protein)
chain 1: QVQLVQSRAEVKKPGSSVKVSCKASGGTISTYAISWVRQAPGQGLEWMGGIIPIFGTANYAQKFQGRVTITADESTSTAYMELSSLRSEDTAVYYCARNSREDGVWSGYYTSVYYGMDVWGQGTTVTVSS
chain 2: QSALTQPASVSGSPGQSITISCTGTSSDVGSYNLVSWYQQHPGKVPKLMIYEGNKRPSGISNRFSGSKSGNTASLTISGLQAEDEADYYCCSYASSNTRVFGTGTKVTVL
B14: C2046 (protein)
chain 1: VQLVESGGGVVQPGRSLRLSCAASGFTISRYGMHWVRQAPGKGLEWVAVILYDGSNKYYADSVKGRFTISRDNSKNTLYLQMNSLRAEDTAVYYCAKVGGPYCGGGSCYGGYFDYWGQGTLVTVSS
chain 2: IRMTQSPSSLSASVGDRVTITCQASQDISNYLNWYQQKPGKAPKLLIYDASNLETGVPSRFSGSGSGTDFTFTISSLQPEDIATYYCQQYDNLPGFGPGTKVDIK
B15: C2015 (protein)
chain 1: EVQLVQSGAEVKKPGESLKISCKGSGYSFTSYWIGWVRQMPGKGLEWMGIIYPGDSDTRYSPSFQGQVTISADKSISTAYLQWSSLKASDTAMYYCARQVLTYYDILTGYSFEYYFDYWGQGTLVTVSS
chain 2: EIVLTQSPATLSLSPGERATLSCRASQSVSSYLAWYQQKPGQAPRLLIYDASNRATGIPARFSGSGSGTDFTLTISSLEPEDFAVYYCQQRSNWLTFGGGTKVEIK

target: SARS-CoV-2 Wuhan-Hu-1 spike pseudovirus; assay: pseudovirus neutralization IC50; higher = weaker neutralization
Description: (§1)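 Single-round luciferase reporter pseudovirus mixed with antibody dilutions and put on 293T-ACE2 cells for 48 h; signal relative to no-antibody wells, four-parameter fit.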

Binder | pseudovirus neutralization IC50
B1 | 0.0041 µg/mL
B2 | 0.0775 µg/mL
B4 | 0.0129 µg/mL
B5 | 0.0557 µg/mL
B6 | 0.0105 µg/mL
B8 | 0.51 µg/mL
B11 | 0.00552 µg/mL
B13 | > 1 µg/mL
B14 | 0.366 µg/mL
B15 | > 1 µg/mL

target: SARS-CoV-2 Wuhan-Hu-1 spike pseudovirus; assay: pseudovirus neutralization IC90; higher = weaker neutralization
Description: as §1

Binder | pseudovirus neutralization IC90
B1 | 0.0273 µg/mL
B2 | 0.759 µg/mL
B4 | 0.0737 µg/mL
B5 | 0.39 µg/mL
B6 | 0.074 µg/mL
B8 | > 1 µg/mL
B11 | 0.0669 µg/mL
B13 | > 1 µg/mL
B14 | > 1 µg/mL
B15 | > 1 µg/mL

target: SARS-CoV-2 Wuhan-Hu-1 spike receptor-binding domain; assay: ELISA binding EC50; higher = weaker binding; ELISA of recombinant human antibody on coated antigen, from 10 µg/ml in fourfold dilutions; four-parameter fit.

Binder | ELISA binding EC50
B1 | 0.00171 µg/mL
B2 | 0.00239 µg/mL
B3 | > 10 µg/mL
B4 | 0.000716 µg/mL
B5 | 0.00254 µg/mL
B6 | 0.00261 µg/mL
B7 | > 10 µg/mL
B8 | 0.00172 µg/mL
B9 | > 10 µg/mL
B10 | > 10 µg/mL
B11 | 0.00194 µg/mL
B12 | > 10 µg/mL
B13 | 0.00297 µg/mL
B14 | 0.00167 µg/mL
B15 | 0.00264 µg/mL

Changes are numbered by the printed parent chain. Recombinant human monoclonal antibodies (heavy:light variable regions). ELISA EC50 on the named antigen, from 10 µg/ml down; IC50 / IC90 against spike pseudovirus on 293T-ACE2 cells, 48 h; lower = stronger. Calls: IC50 above 1,000 ng/ml = non-neutralizing; EC50 above 2,000 ng/ml = non-binder. The source prints 1000 for neutralization that was not reached; it is given as >1000 ng/ml. A few antibodies were first reported in earlier work of the same group.
